Source: PubChem BioAssay (NCATS)
Some of the results follow. These are further read-outs of the screen, such as a control signal, another cell line or another target. No call is given for them. The note in brackets gives the kind of curve behind each potency; many fits are weak.

test: qHTS drug screen for cell cycle checkpoint inhibitors in PARPi-resistant BRCA-mutant ovarian cancer cell lines. (AID 1963452); conditions: PEO1/OlaR viability, CellTiter-Glo luminescence, 96 h; measured here: PEO4 viability
Summary of the method: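 PEO1, PEO4 and PEO1/OlaR ovarian cancer cells, 600 per well, exposed 96 h at 37C to a dilution series. Viability read by CellTiter-Glo luminescence, normalized to DMSO and empty wells; activity summarized as Z-AUC.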
Tags tell the direction and shape of the fitted curve.

Row | Structure (SMILES) | AC50
1 | Nc1nc(N)c2nc(-c3cccc(Cl)c3)c(N)nc2n1 | 4.9 µM [falling, full curve]
2 | O=C(NNc1ccccc1)c1ccncc1 | 24.5 µM [falling, single point]
3 | Cc1c(C(=O)Nc2ccc(Oc3ccnc4[nH]cc(-c5ccccc5)c34)c(F)c2)c(=O)n(-c2ccc(F)cc2)n1C | 6.16 µM [falling, partial curve, poor fit]
4 | CCN(CCO)CCCOc1ccc2c(Nc3cc(CC(=O)Nc4cccc(F)c4)[nH]n3)ncnc2c1 | 2.45 µM [falling, partial curve, poor fit]
